{"source": "the supplement of paper PMC3334620", "note": "In all, about 33,000 sequences were measured (“E-score (-0.5 to 0.5)”: median about -0.054, highest 2% from about 0.39 on). Some of the results follow.", "data": [{"molecular_target": "Ylr278c (UniProt Q05854)", "assay": "PBM E-score (8-mer binding enrichment) (E-score (-0.5 to 0.5)); higher = stronger / more preferred TF binding; most listed sequences are background and not binding sites", "conditions": "protein concentration: 200 nM; construct: GST-DNA-binding domain", "summary_of_the_method": "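Full-length yeast transcription factors or their DNA-binding domains, GST-tagged and expressed with PURExpress, were applied at about 100-200 nM to universal all-10-mer Agilent arrays. These arrays had been made double-stranded by primer extension on fresh or once-stripped slides. Detection used fluorescent anti-GST, normalisation used masliner, and E-scores for ungapped eight-base words pooled with reverse complements came from the Universal PBM Analysis Suite.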", "values": [{"sequence": "ACCTCTCT", "PBM E-score": -0.217}, {"sequence": "GACCCACC", "PBM E-score": 0.116}, {"sequence": "GATACCCA", "PBM E-score": -0.0783}, {"sequence": "AACGCTCC", "PBM E-score": -0.0586}, {"sequence": "CAATCTGG", "PBM E-score": -0.0992}, {"sequence": "TAGATCAA", "PBM E-score": -0.225}, {"sequence": "CACATTAA", "PBM E-score": -0.232}, {"sequence": "AAAGTGAT", "PBM E-score": -0.0992}, {"sequence": "AAAGCGTA", "PBM E-score": -0.0252}, {"sequence": "GCACGATA", "PBM E-score": -0.026}, {"sequence": "ACTAAAGC", "PBM E-score": -0.0965}, {"sequence": "ACTCTCAG", "PBM E-score": -0.311}, {"sequence": "ACCCTGCT", "PBM E-score": -0.127}, {"sequence": "CGTCGACA", "PBM E-score": -0.111}, {"sequence": "GACAAGCC", "PBM E-score": -0.0446}, {"sequence": "GGTCAGAA", "PBM E-score": -0.0755}, {"sequence": "CCGGAAAC", "PBM E-score": 0.404}, {"sequence": "GGAATTAA", "PBM E-score": 0.282}, {"sequence": "CATACAAG", "PBM E-score": -0.247}, {"sequence": "CCATGAGC", "PBM E-score": -0.197}, {"sequence": "CTCCGAAC", "PBM E-score": 0.457}, {"sequence": "ATGTGTTG", "PBM E-score": -0.0612}, {"sequence": "AGGCTTGG", "PBM E-score": -0.043}, {"sequence": "AACCCGCA", "PBM E-score": 0.218}, {"sequence": "GAGTCGAC", "PBM E-score": 0.00525}, {"sequence": "AGAAAGTC", "PBM E-score": 0.121}, {"sequence": "ATAAATCG", "PBM E-score": 0.0793}, {"sequence": "ACATAGTC", "PBM E-score": -0.0206}, {"sequence": "ACCTGTGC", "PBM E-score": -0.0986}, {"sequence": "GGTTGCTA", "PBM E-score": -0.162}, {"sequence": "CGAGTGAG", "PBM E-score": -0.0128}, {"sequence": "GTCTTCGA", "PBM E-score": -0.173}, {"sequence": "TCTCCAGA", "PBM E-score": -0.0107}, {"sequence": "AAGAGTGA", "PBM E-score": -0.167}, {"sequence": "AGAACACT", "PBM E-score": 0.00599}, {"sequence": "GCGTCATA", "PBM E-score": -0.0652}, {"sequence": "CTACCAAA", "PBM E-score": "7e-05"}, {"sequence": "GACTGGGA", "PBM E-score": 0.0171}, {"sequence": "ATAGCGAG", "PBM E-score": 0.0889}, {"sequence": "GACAGGGC", "PBM E-score": -0.0701}, {"sequence": "CTCCCAAC", "PBM E-score": -0.0692}, {"sequence": "ACTCAGCA", "PBM E-score": -0.129}, {"sequence": "CTCGTCGC", "PBM E-score": -0.0694}, {"sequence": "AGGTCAAA", "PBM E-score": -0.237}, {"sequence": "AGAGGCCA", "PBM E-score": -0.067}, {"sequence": "GACTCCTC", "PBM E-score": -0.135}, {"sequence": "AGTGCGAG", "PBM E-score": -0.276}, {"sequence": "TCGTCTAA", "PBM E-score": -0.181}, {"sequence": "CCGGGATC", "PBM E-score": 0.411}, {"sequence": "AGCCCGAT", "PBM E-score": 0.176}, {"sequence": "TGTCCCAA", "PBM E-score": -0.11}, {"sequence": "ATCGTGGG", "PBM E-score": -0.0222}, {"sequence": "ATAGTCTG", "PBM E-score": -0.303}, {"sequence": "CGTATCTC", "PBM E-score": 0.148}, {"sequence": "AGCGGTAA", "PBM E-score": 0.154}, {"sequence": "ATAGGCAC", "PBM E-score": -0.239}, {"sequence": "AGTTAGCA", "PBM E-score": -0.14}, {"sequence": "ACTATACG", "PBM E-score": -0.0768}, {"sequence": "ACCAGAGG", "PBM E-score": -0.304}, {"sequence": "ACAATAGG", "PBM E-score": 0.0339}, {"sequence": "AATAAAGA", "PBM E-score": 0.00576}, {"sequence": "AATGCATA", "PBM E-score": -0.0812}, {"sequence": "CACAGCCC", "PBM E-score": -0.176}, {"sequence": "GTGAAGGA", "PBM E-score": -0.103}, {"sequence": "CAAACCGA", "PBM E-score": -0.0941}, {"sequence": "ATGAACAC", "PBM E-score": -0.108}, {"sequence": "GCAAAGAA", "PBM E-score": 0.041}, {"sequence": "AAAAATTT", "PBM E-score": -0.00393}, {"sequence": "ACGAAAAT", "PBM E-score": -0.0863}, {"sequence": "GCTTCGCA", "PBM E-score": -0.0784}, {"sequence": "AACAGGGG", "PBM E-score": -0.141}, {"sequence": "AGGGCAAG", "PBM E-score": -0.0129}, {"sequence": "ATACGATG", "PBM E-score": -0.0393}, {"sequence": "GAGCGAGC", "PBM E-score": -0.0295}, {"sequence": "ACGTATGG", "PBM E-score": -0.163}, {"sequence": "ACTTCAAG", "PBM E-score": -0.123}, {"sequence": "ACTGTCTA", "PBM E-score": -0.169}, {"sequence": "ACCGTCTC", "PBM E-score": -0.0788}, {"sequence": "CCGTTGAC", "PBM E-score": 0.0534}, {"sequence": "ACCGACCA", "PBM E-score": 0.0285}, {"sequence": "ATCAAGGA", "PBM E-score": -0.164}, {"sequence": "AAAGATCA", "PBM E-score": -0.115}, {"sequence": "ACACCTAC", "PBM E-score": -0.00022}, {"sequence": "ATGTAAAA", "PBM E-score": -0.0769}, {"sequence": "CCTTTCCC", "PBM E-score": 0.213}, {"sequence": "CCATCTCG", "PBM E-score": 0.0354}, {"sequence": "CTGGTGTA", "PBM E-score": -0.232}, {"sequence": "ACGATTGG", "PBM E-score": -0.0687}, {"sequence": "AGCGGTTA", "PBM E-score": -0.104}, {"sequence": "AGGGAGCG", "PBM E-score": -0.14}, {"sequence": "ATGCCTTC", "PBM E-score": -0.247}, {"sequence": "ATATTCAT", "PBM E-score": -0.194}, {"sequence": "CATACCGG", "PBM E-score": 0.288}, {"sequence": "AAAATCAG", "PBM E-score": -0.0881}, {"sequence": "CAAGGTAA", "PBM E-score": 0.0397}, {"sequence": "ATGGATTG", "PBM E-score": -0.0567}, {"sequence": "CTCTTATC", "PBM E-score": 0.065}, {"sequence": "CTTATCAA", "PBM E-score": -0.104}, {"sequence": "GCTCTACA", "PBM E-score": -0.0954}, {"sequence": "AGTACTAC", "PBM E-score": -0.212}, {"sequence": "AGAGAAGC", "PBM E-score": -0.0355}, {"sequence": "GGCTGGCA", "PBM E-score": -0.188}, {"sequence": "AACCATCA", "PBM E-score": -0.0641}, {"sequence": "ATTCATAC", "PBM E-score": 0.0829}, {"sequence": "GATTTTAA", "PBM E-score": 0.0613}, {"sequence": "ACAACAGG", "PBM E-score": -0.123}, {"sequence": "CTAAAAAA", "PBM E-score": 0.101}, {"sequence": "ATGAGTGC", "PBM E-score": -0.0761}, {"sequence": "ATGCAAAT", "PBM E-score": -0.0636}, {"sequence": "GTCGGATA", "PBM E-score": 0.312}, {"sequence": "ACTATATC", "PBM E-score": -0.0833}, {"sequence": "CATAGCTA", "PBM E-score": -0.168}, {"sequence": "ATGGAGAG", "PBM E-score": -0.259}, {"sequence": "CGAGGCCA", "PBM E-score": -0.0935}, {"sequence": "AGGCGACG", "PBM E-score": 0.0174}, {"sequence": "GGGGACCC", "PBM E-score": -0.0138}, {"sequence": "AATCTCCT", "PBM E-score": 0.0721}, {"sequence": "CCCGTGAC", "PBM E-score": 0.112}, {"sequence": "TCAGTCAA", "PBM E-score": -0.219}, {"sequence": "GATTGCGC", "PBM E-score": 0.186}, {"sequence": "CAGGGCGC", "PBM E-score": 0.0102}, {"sequence": "CGCGGAAC", "PBM E-score": 0.368}, {"sequence": "GGCGACAA", "PBM E-score": -0.0481}, {"sequence": "ACAGCCAA", "PBM E-score": -0.192}, {"sequence": "ACAAGGGC", "PBM E-score": -0.143}, {"sequence": "AGTGTAAG", "PBM E-score": -0.13}, {"sequence": "CCCTAAGG", "PBM E-score": -0.151}, {"sequence": "AGCGGAGA", "PBM E-score": 0.394}, {"sequence": "ATTTTGGC", "PBM E-score": 0.087}, {"sequence": "ACTTTAAC", "PBM E-score": -0.262}, {"sequence": "ACTGGTTA", "PBM E-score": -0.0127}, {"sequence": "ACAGGCCA", "PBM E-score": -0.0991}, {"sequence": "ATATCCCA", "PBM E-score": 0.176}, {"sequence": "CAGTTGTA", "PBM E-score": -0.0678}, {"sequence": "CGTCAATC", "PBM E-score": -0.157}, {"sequence": "AGAAGTAG", "PBM E-score": -0.241}, {"sequence": "TACCCCGA", "PBM E-score": 0.411}, {"sequence": "GTACAAAA", "PBM E-score": -0.0388}, {"sequence": "ACTCAAGG", "PBM E-score": 0.0273}, {"sequence": "ATTTCACC", "PBM E-score": -0.0343}, {"sequence": "CAACGTTC", "PBM E-score": 0.0169}, {"sequence": "CTTTCCTA", "PBM E-score": -0.185}, {"sequence": "AGGTTGGA", "PBM E-score": 0.0655}, {"sequence": "ATCGTGTG", "PBM E-score": -0.00379}, {"sequence": "CTGTTGAA", "PBM E-score": 0.018}, {"sequence": "GCCTTTCC", "PBM E-score": 0.156}, {"sequence": "GCATATCA", "PBM E-score": 0.0798}, {"sequence": "GCGTTAAA", "PBM E-score": 0.0403}, {"sequence": "AAACCAAT", "PBM E-score": 0.0849}, {"sequence": "GGAAACCC", "PBM E-score": 0.192}, {"sequence": "AGCAGTAT", "PBM E-score": -0.186}, {"sequence": "AACGTATT", "PBM E-score": -0.055}, {"sequence": "GGGGAGAC", "PBM E-score": 0.0986}, {"sequence": "CAGCTAAA", "PBM E-score": -0.174}, {"sequence": "CAACATGA", "PBM E-score": -0.0341}, {"sequence": "CTTCACGC", "PBM E-score": 0.1}, {"sequence": "CACAGTGC", "PBM E-score": 0.00588}, {"sequence": "CTCCCGAA", "PBM E-score": 0.148}, {"sequence": "ATCCACTA", "PBM E-score": -0.0652}, {"sequence": "AACTCAGA", "PBM E-score": -0.213}, {"sequence": "AAAATGCA", "PBM E-score": -0.112}, {"sequence": "CCTTTCCG", "PBM E-score": 0.347}, {"sequence": "AACGTGAT", "PBM E-score": -0.201}, {"sequence": "CCGATTGA", "PBM E-score": 0.165}, {"sequence": "CCATGGCG", "PBM E-score": 0.0774}, {"sequence": "AAATTTTA", "PBM E-score": -0.232}, {"sequence": "GCGCCACA", "PBM E-score": -0.00652}, {"sequence": "AGACGCCC", "PBM E-score": 0.164}, {"sequence": "CCAAAATC", "PBM E-score": 0.123}, {"sequence": "ATGTGCCA", "PBM E-score": -0.318}, {"sequence": "CCTATCCC", "PBM E-score": 0.0733}, {"sequence": "AATTACAG", "PBM E-score": 0.0452}]}]}
